Source: article PMC4336329 (PLoS ONE, 2015)
In all, about 310,000 compounds went through this assay and about 2,200 (0.71%) showed an effect of 50% or more. The effect is printed as a negative number. The list shows a part of the results.

Target: human ether-à-go-go-related gene (hERG) potassium channel (human, UniProt Q12809)
Assay: primary screen, population patch clamp on CHO cells stably expressing hERG

human ether-à-go-go-related gene (hERG) potassium channel, sequence (Q12809 whole entry, looked up): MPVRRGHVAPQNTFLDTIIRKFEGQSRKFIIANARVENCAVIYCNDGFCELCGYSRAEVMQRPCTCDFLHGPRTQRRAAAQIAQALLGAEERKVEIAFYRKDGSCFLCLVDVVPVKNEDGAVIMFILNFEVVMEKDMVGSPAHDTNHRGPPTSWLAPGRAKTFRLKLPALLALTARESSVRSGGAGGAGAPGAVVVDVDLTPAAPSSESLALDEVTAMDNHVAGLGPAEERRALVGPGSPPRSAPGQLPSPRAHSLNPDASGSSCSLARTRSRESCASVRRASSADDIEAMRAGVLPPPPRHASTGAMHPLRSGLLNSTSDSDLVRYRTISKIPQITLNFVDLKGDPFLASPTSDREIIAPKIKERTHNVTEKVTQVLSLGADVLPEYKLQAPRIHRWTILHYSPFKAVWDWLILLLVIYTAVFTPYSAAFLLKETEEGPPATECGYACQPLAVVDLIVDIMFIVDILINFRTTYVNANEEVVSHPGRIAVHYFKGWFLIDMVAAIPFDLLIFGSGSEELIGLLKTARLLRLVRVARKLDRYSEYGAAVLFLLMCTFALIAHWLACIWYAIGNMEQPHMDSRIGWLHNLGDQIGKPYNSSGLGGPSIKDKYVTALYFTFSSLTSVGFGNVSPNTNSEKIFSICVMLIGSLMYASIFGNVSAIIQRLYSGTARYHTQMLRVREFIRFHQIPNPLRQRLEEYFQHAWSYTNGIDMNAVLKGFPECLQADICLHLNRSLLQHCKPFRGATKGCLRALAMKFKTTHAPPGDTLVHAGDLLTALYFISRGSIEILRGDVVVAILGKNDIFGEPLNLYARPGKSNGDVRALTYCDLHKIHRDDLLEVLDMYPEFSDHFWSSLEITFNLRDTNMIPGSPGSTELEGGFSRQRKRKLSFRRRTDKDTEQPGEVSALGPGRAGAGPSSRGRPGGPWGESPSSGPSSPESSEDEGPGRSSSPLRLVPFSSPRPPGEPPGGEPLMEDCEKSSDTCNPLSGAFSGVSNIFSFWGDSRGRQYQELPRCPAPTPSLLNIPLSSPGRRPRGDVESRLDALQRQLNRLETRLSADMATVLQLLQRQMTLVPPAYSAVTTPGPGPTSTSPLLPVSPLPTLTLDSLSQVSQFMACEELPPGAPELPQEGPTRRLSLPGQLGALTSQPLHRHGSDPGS

SMILES | hERG current change (%, negative = inhibition) at 1uM [%]
Cc1ccc(SCC(=O)Nc2cc(C)on2)cc1 | 10.1
CCn1ncc(C2=NOC(C(=O)Nc3cccc(C(C)=O)c3)C2)c1C (stereo not drawn) | -2.93
COCc1cc(C2C(C(=O)c3ccco3)=C(O)C(=O)N2CCOCCO)ccc1O (stereo not drawn) | -1.36
C=CCn1c(COc2ccc(CC)cc2)nnc1SCC(=O)NC1CCS(=O)(=O)C1 (stereo not drawn) | 8.88
COc1ccc(NC(=S)N(CCO)Cc2cc3c(C)cc(C)cc3[nH]c2=O)cc1 | -4.9
O=C(CC1OC(=O)c2ccccc21)NCC1COc2ccccc2O1 (stereo not drawn) | -12.1
c1ccc(OCCCc2nc(-c3cccnc3)no2)cc1 | 3.09
CC(=O)Nc1ccc(NC(=O)c2cc(=O)c3ccc(C)cc3o2)cc1 | 14.9
O=C(N/N=C/c1ccc([N+](=O)[O-])cc1)c1ccccc1OCc1ccccc1 | 8.09
COc1ccc(/C=N/OCC(=O)Nc2nc3ccccc3s2)cc1 | 1.7
CCOc1ccccc1Oc1nc(-c2ccccc2O)nc2ccccc12 | 3.92
CCN(CC)c1ccc(C(=O)NN)cc1 | 6.35
Cn1c(CNC(=O)C(Cc2ccccc2)NC(=O)c2cccc(F)c2)cc(=O)n(C)c1=O (stereo not drawn) | -0.274
CC(=O)C1=NOC2C(=O)N(c3ccc(Cl)cc3)C(=O)C12 (stereo not drawn) | 9.03
Cc1cccc(OCc2nnc(SCC(=O)N3CCc4ccccc43)n2C)c1 | 7.27
Cc1ccc(C)c(N2CCN(C(=O)CN3C(=S)NC(C)(C)CC3C)CC2)c1 (stereo not drawn) | 5.55
Cc1cc(/C=C(/C#N)C(=O)O)c(C)n1-c1cccc2ccccc12 | 10.4
C=CCN(c1ccccc1C(=O)NCC(=O)O)S(=O)(=O)c1ccccc1C | 18
CCOC(=O)CSc1nnc(-c2ccncc2)o1 | 13.2

SMILES | hERG current change (%, negative = inhibition) at 1uM [%]
COC(=O)COn1c(SCC(=O)OC)nc2ccccc2c1=O | -1.93
Cc1nn(C(C)C(=O)NC2CCC(C)CC2)c(=O)c2nn(-c3ccccc3)c(C)c12 (stereo not drawn) | 1.8
O=C(NCC(=O)N1CCN(c2ccccc2O)CC1)c1ccco1 | 9.05
COc1ccccc1NC(=O)Cn1nnc(C(=O)NCCc2ccccc2)c1N | 6.86
O=C(CN1CCOCC1)Nc1ncc(Cc2cccc3ccccc23)s1 | -5.03
COc1cc(OC)c(OC)cc1/C=C/c1cc(C(=O)O)c2ccccc2n1 | 4.43
CCOC(=O)N1CCN(c2cc(=O)n(-c3ccccc3Cl)c(=O)[nH]2)CC1 | 13.3
CC12CC(c3ccccc3O1)C(C(=O)OCc1ccccc1)C(=O)N2 (stereo not drawn) | 7.32
COc1ccc([N+](=O)[O-])cc1N(CC(=O)NC(C(C)C)C(C)C)S(C)(=O)=O | 4.06
CC(=O)Nc1ccc(Nc2c3ccccc3nc3ccccc23)cc1 | -34.6
CCOC(=O)C1(CC)NC(c2ccco2)C2C(=O)N(c3ccc(C)cc3)C(=O)C21 (stereo not drawn) | 6.54
C/C(=N\NC(=O)c1ccccc1O)c1cccc(NC(=O)c2ccccc2)c1 | 8.4
CCCNS(=O)(=O)c1ccc(OCC(=O)N2CCN(Cc3ccc4c(c3)OCO4)CC2)cc1 | 6.6
O=C(C1CCC1)N1CCc2cc(S(=O)(=O)NCCCN3CCCCC3)ccc21 | 17
Cn1cc(S(=O)(=O)c2ccccc2)c(=O)c2cc(Cl)ccc21 | 81
O=C1SC(c2ccccc2)=N/C1=C/c1ccco1 | 6.8
CCC(=NCCc1c(C)[nH]c2ccccc12)C1=C(O)CC(c2ccccc2)CC1=O (stereo not drawn) | 2.33
Cc1nc2nc(CC(=O)O)[nH]n2c(=O)c1[N+](=O)[O-] | 14.1
O=[N+]([O-])c1cc(C(F)(F)F)ccc1NCCCCNS(=O)(=O)c1ccc2ccccc2c1 | 0.128

SMILES | hERG current change (%, negative = inhibition) at 1uM [%]
Cc1cc(C)cc(NC(=O)CCN2CCCC2)c1 | 0.603
CC(=O)NNC(=S)NCCc1ccccc1 | 8.56
O=C(OCc1ccc(O)cc1)c1c(-c2ccsc2)oc2ccc(N3CCOCC3)cc12 | 7.34
CN(C)c1nc(N2CCN(c3ccccc3)CC2)c(C#N)c(=O)o1 | -5.61
COC(=O)Cc1c(C)c2c(O)cc(C)cc2oc1=O | 3.78
COc1cc(CCCN2C(=O)C(=O)NC[C@@H]2c2ccccc2)cc(OC)c1OC | 5.72
COc1ccc(OCC(=O)NC2CCCN(Cc3ccc(Cl)cc3)C2)cc1 (stereo not drawn) | 9.23
O=C(NC(CO)c1ccccc1)c1ccco1 (stereo not drawn) | 10.3
c1ccc(CCCc2nc(-c3cccnc3)no2)cc1 | 18.3
COc1ccc(C)cc1N(CC(=O)Nc1ccc(S(=O)(=O)N2CCOCC2)cc1)S(C)(=O)=O | 8.19
CCOc1ccc(C(=O)Nc2cccc(C(C)=O)c2)cc1[N+](=O)[O-] | 2.22
Cc1ccc(NC(=O)C2CCC(N3C(=O)C4CCCCC4C3=O)CC2)cc1 (stereo not drawn) | 10.6
Cc1ccccc1-n1c(Cc2cccs2)n[nH]c1=S | 11.9
CCCCNC(=S)Nc1cc([N+](=O)[O-])ccc1C | 18.9
COc1ccccc1CNC(=O)COC(=O)c1cc(C)oc1C | 2.86
COc1ccc(NC2=NC(=S)N(c3ccccc3C)C23CCCCC3)cc1 | 9.78
CCOC(=O)c1ccc(NC(=O)c2c(N)n(Cc3ccccc3)c(=O)[nH]c2=O)cc1 | 27.2
O=C(OCCCc1cc2ccccc2c(=O)o1)c1ccc2c(c1)OCO2 | 11.4
O=C(O)c1nnn(-c2ccc(F)cc2F)c1-c1ccccc1 | 6.78
